According to PubChem BioAssay AID1508624 (National Center for Advancing Translational Sciences (NCATS), 2021):
The whole screen tested about 48,000 compounds, of which about 120 (0.25%) were called active. About 4% were inconclusive and are not listed. The call rests on the fitted dose curve; in most records, active means well fitted activation curve with a large enough effect; inconclusive means small, poorly fitted or top-dose-only effect, or another doubt; inactive means no such curve, though single readings can be large or run the other way. Some of the results follow.

Test: Primary qHTS for Identification of Small Molecule Activators of Huntingtin-Antisense Promoter Activity; further: nearly all actives have a fitted effect of over 55% in size
Conditions: HEK293 HTT-AS promoter firefly luciferase reporter, 24 h; series mostly up to 57.5 µM; activity change, positive = activation: at the top concentration
Outline: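 Quantitative HTS used concentration series of up to 57.5 uM final on HEK293 luciferase reporter cells, 24 h at 37 degrees C. Readout was Dual-Glo firefly luminescence.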

Activity change, positive = activation, inactive:
Cc1ccccc1Nc1c(-c2cccnc2)nc2ccc(Cl)cn12 -8.31%, CCc1nn2c(=O)c(S(=O)(=O)Nc3ccc(Cl)cc3)c(C)nc2s1 -25.8%, CCCCN(C)CCNC(=O)CN1C(=O)CSc2ccc(S(=O)(=O)N3CCOCC3)cc21 -0.509%, O=C(CSc1nc(-c2ccc(F)cc2)[nH]c1-c1ccc(F)cc1)Nc1ccc2c(c1)OCO2 -48.7%, O=C(Cc1ccc(-c2ccccc2)cc1)NCCS(=O)(=O)N1CCN(c2ccccc2)CC1 -19.9%, COc1cc(NC(=O)CSc2ccc(-c3ccccn3)nn2)cc(OC)c1 -36.1%, Cc1ccc(CNC(=O)c2ccc(CS(=O)Cc3cccc(Cl)c3)o2)cc1 (stereo not drawn) -21.2%, COc1ccc(-c2cc(C(F)(F)F)nc(SCC(=O)NCC(C)C)n2)cc1OC -10%, COc1ccccc1NC(=O)C1=C(C)Nc2nc3ccccc3n2C1c1cccc(OC)c1OC (stereo not drawn) -11.6%, Cc1ccn2c(=O)cc(COc3cccc(NC(=O)Nc4cccc(Cl)c4C)c3)nc2c1 -5.55%, O=C(NCCCN1CCOCC1)c1ccc2c(c1)N(Cc1cccc(Cl)c1)C(=O)c1ccccc1S2 -20.3%, O=C(Cn1cc(S(=O)(=O)c2ccccc2)c(=O)c2cc(Cl)ccc21)Nc1ccc2c(c1)OCO2 3.94%, COc1ccc(NC(C)=O)cc1NC(=O)CN1CCN(c2ccc(F)cc2)CC1 -15.7%, O=S(=O)(c1cccc2ccccc12)N1CCN(c2ccc(Cl)c(Cl)c2)CC1 -6.26%, CCOc1ccc(NC(=O)CSc2nnc(CNC(=O)C34CC5CC(CC(C5)C3)C4)n2CC)cc1 -27.7%, CCOC(=O)c1ccccc1NC(=O)Nc1cc2c(cc1N1CCCC1)n(C)c(=O)n2C -16.1%, Cc1cc2oc(C(=O)Nc3cccc(-c4nc5ccccc5o4)c3)c(C)c2cc1C 3.57%, COc1ccc(-n2nc3cc(C)c(NC(=O)Cc4ccc(Cl)cc4)cc3n2)cc1 9.21%, O=C(CSc1nc(=O)n(Cc2ccncc2)c2c1CCC2)Nc1ccc(F)cc1F -3.95%, CCCN1CN=C(NS(=O)(=O)c2ccc(NC(C)=O)cc2)NC1 -0.211%, CCc1ccc(NC(=O)CSc2nc(-c3cccc(OC)c3)nc3c2Cc2c(CO)cnc(C)c2O3)cc1 -9.22%, CC(Oc1ccccc1)C(=O)Nc1ccccc1C(=O)OCc1cc(=O)n2nc(C(C)C)sc2n1 (stereo not drawn) 6.6%, Cc1c(C(=O)N(C)C)sc2c1c(=O)n(-c1ccc(Cl)c(Cl)c1)c(=O)n2CC(=O)N1CCCCC1C (stereo not drawn) -10.1%, COc1cc(C(=O)N(Cc2ccc(N(C)C)cc2)CC2CCCO2)cc(OC)c1OC (stereo not drawn) -8.44%, CCCC12CN3CC(CCC)(CN(C1)C3c1ccc(OC(C)C)cc1)C2=O (stereo not drawn) 4.13% [at 11.5 µM, percent change from vehicle, -100% = no light], COc1cccc(Cn2c(C)c(CNC3CCCCC3)c(C(=O)O)c2C)c1 -7.16%, COc1ccc(-c2noc(-c3ccc(N4CCN(c5ccccc5OC)CC4)c([N+](=O)[O-])c3)n2)cc1 -4.3%, CCCN1CCN(CC2=C(C(=O)OCC)C(c3ccc(OC(C)C)cc3)NC(=O)N2)CC1 (stereo not drawn) -7.26%, CSc1nc2c(sc3ccccc32)c(=O)n1Cc1ccc(C)cc1 -1.6%, CCn1c(=O)c(=O)n(CC)c2cc(N3CCCCC3)c(NC(=O)c3ccccc3OC)cc21 -9.28%, CCOc1ccc(-c2nc(CSCC(=O)NCCc3ccc(OCC)c(OCC)c3)c(C)o2)cc1 -48.5%, COc1ccccc1-c1c(C)nn2c(N3CCN(c4ccccc4)CC3)cc(C)nc12 -11.7%, COc1ccc(OC)c(CNC(=O)CN2N=C(c3ccc(Cl)cc3)CCC2=O)c1 -3%, O=C(NCCc1ccc(Cl)cc1)C(=O)NCC(c1cccs1)S(=O)(=O)c1cccs1 (stereo not drawn) -41.9%, O=C(Nc1ccc2nc(SCC(=O)N3CCOCC3)sc2c1)c1ccc(Br)cc1 -19.8%, COc1ccc(C(=O)Nc2cc(-c3nc4ccccc4s3)ccc2OC)cc1 -3.25%, CCC(C)NC(=O)CSc1c2c(nc3cc(Cl)ccc13)CCCC2 (stereo not drawn) -5.74%, C=Cc1ccc(Cn2c(C(=O)O)c(CNC3CCCCC3)c3ccc(OC)cc32)cc1 -22.7%, CCCOC1(C(F)(F)F)NC(=O)N(c2cccc(Cl)c2)C1=O (stereo not drawn) -22.7%, COc1cccc(CNC(=O)C(=O)NCC(c2ccc3c(c2)OCO3)N2CCOCC2)c1 (stereo not drawn) -22.7%, COC(=O)c1ccc(NC(=O)CCc2c(C)nc3c(c(C)nn3C(C)(C)C)c2C)cc1 -38%, Nc1ncnc2c1ncn2[C@@H]1O[C@H](CO)[C@@H](O)[C@H]1O -13.3%, CCN(C(=O)CSc1nc(-c2ccccc2)no1)c1ccccc1 -11%, C=C1C(=C/C=C2\CCC[C@]3(C)[C@@H]([C@H](C)/C=C/[C@@H](O)C4CC4)CC[C@@H]23)C[C@@H](O)C[C@@H]1O -22.8%, Cc1ccc2occ(-c3cc(-c4ccc(F)cc4)nc4c3COc3ccc(F)cc3-4)c(=O)c2c1 -6.67%, Cc1ccccc1CSc1nc(-c2cccc(F)c2)nc2c1Cc1c(CO)cnc(C)c1O2 -8.63%, COc1ccc(OC)c(CNC(=O)c2nn(C)c3c2CS(=O)(=O)c2ccccc2-3)c1 -7.07%, CN(C)C(=O)c1ccc2c(c1)N(CC(=O)NCc1ccccc1Cl)C(=O)C1CCCCN21 (stereo not drawn) -2.69%, COc1ccc(N2CCN(C(=O)CN3C(=O)COc4ccc(S(=O)(=O)N5CCC(C)CC5)cc43)CC2)cc1 -21.6%, COc1ccc(N2CC(NC(=O)C3CCCCC3)CC2=O)cc1OC (stereo not drawn) -0.711%, O=C(c1cnc2c(c1)COc1ccc(Cl)cc1-2)c1ccccc1O -15.3%, CCOc1ccc(NC(=O)CCCOc2cc(=O)n(C)c3ccccc23)cc1 -4.69%, Clc1ccccc1CSc1nnc(C2CCNCC2)o1 -2.75%, COc1ccc(NC(=O)c2oc3ccccc3c2NC(=O)Cc2coc3ccc(C)cc23)cc1 -1.2%, CCOc1cc(CNC(=O)c2ccc3nc(C(C)C)oc3c2)cc(OCC)c1OCC -11%, CCCCN(CC)C(=O)c1nn(-c2ccc(OC)cc2)c(=O)c2c1c1ccccc1n2C -4.68%, O=C(Cn1c(=O)n(-c2ccccc2)c(=O)c2ccc(C(=O)NCc3ccc4c(c3)OCO4)cc21)Nc1ccc(Br)cc1 -33.7%, Cc1ccc(C)c(N2CCN(C(=O)c3cc4c(=O)oc5ccccc5c4s3)CC2)c1 -6.26%
